Measured values from paper PMC4336329 (PLoS ONE, 2015).
The campaign covered roughly 310,000 compounds. About 14,000 (4.5%) showed an effect of 50% or more. Effects have a minus sign here. Some of the results follow.
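Also: peak tail current of the secondary pulse compared with the same well before compound.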

These compounds were tested against human ether-à-go-go-related gene (hERG) potassium channel (human, UniProt Q12809) (assay: primary screen, population patch clamp on CHO cells stably expressing hERG).
human ether-à-go-go-related gene (hERG) potassium channel, sequence (Q12809 whole entry, looked up): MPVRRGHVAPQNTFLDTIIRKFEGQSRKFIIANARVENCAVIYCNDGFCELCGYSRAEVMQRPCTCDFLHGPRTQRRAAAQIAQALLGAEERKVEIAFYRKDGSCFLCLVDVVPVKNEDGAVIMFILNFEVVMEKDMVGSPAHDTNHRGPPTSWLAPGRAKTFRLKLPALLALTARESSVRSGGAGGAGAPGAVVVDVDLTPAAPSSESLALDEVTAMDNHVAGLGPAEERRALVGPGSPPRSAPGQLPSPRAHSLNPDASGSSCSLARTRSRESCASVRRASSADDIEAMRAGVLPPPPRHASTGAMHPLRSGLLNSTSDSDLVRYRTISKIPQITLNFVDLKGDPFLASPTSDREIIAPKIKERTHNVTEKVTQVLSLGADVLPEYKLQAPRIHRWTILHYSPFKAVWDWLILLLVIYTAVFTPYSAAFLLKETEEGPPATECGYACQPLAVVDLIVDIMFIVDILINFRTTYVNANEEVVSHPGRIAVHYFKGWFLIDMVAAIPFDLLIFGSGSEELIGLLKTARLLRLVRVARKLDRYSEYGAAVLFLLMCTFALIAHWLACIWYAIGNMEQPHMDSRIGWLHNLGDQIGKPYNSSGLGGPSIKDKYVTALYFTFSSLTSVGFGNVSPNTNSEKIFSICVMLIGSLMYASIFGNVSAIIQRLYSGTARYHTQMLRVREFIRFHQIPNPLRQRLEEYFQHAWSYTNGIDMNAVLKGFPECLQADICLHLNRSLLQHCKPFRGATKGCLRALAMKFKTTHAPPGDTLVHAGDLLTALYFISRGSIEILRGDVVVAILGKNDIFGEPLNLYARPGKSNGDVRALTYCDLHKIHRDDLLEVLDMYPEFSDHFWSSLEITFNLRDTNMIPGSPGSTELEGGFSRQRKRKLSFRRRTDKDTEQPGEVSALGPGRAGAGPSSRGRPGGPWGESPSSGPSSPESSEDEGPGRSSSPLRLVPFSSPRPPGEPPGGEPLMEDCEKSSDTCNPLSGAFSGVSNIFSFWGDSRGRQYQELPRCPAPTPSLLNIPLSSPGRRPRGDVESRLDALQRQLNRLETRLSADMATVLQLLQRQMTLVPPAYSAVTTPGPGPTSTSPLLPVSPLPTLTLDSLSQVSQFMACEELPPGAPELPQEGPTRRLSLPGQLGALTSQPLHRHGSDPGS
With `Cc1cc(C)c2cc(CN(Cc3cccs3)Cc3nnnn3CC3CCCO3)c(=O)[nH]c2c1` (stereo not shown) the “hERG current change (%, negative = inhibition) at 10uM” value was -20.3%. In the case of `CC1=Nc2ccc(C)c3nc(C)cc(c23)N1c1ccc(C)cc1`, the “hERG current change (%, negative = inhibition) at 10uM” value is reported as -30.1%. In the case of `Cc1cc(NC(=O)CCCC(=O)N(CC(=O)NC2CCCCC2)c2ccccc2)no1`, the “hERG current change (%, negative = inhibition) at 10uM” value is reported as 4.16%. With `CC(C)(C)c1ccc(S(=O)(=O)NCCc2ccncc2)cc1` the “hERG current change (%, negative = inhibition) at 10uM” value was -0.395%. `CCCCC#Cc1ccc(C(=O)NNC(=O)Nc2ccccc2)o1` was tested, and the “hERG current change (%, negative = inhibition) at 10uM” value was 11.2%. For `CCCc1ccc2oc(C(=O)NCc3nnc(C)o3)c(C)c2c1`, the “hERG current change (%, negative = inhibition) at 10uM” value was 1.52%. For `COc1ccc(Cc2n[nH]c(=S)n2C)cc1Br`, the “hERG current change (%, negative = inhibition) at 10uM” value was 16.1%. For `CCOc1ccc(NC(=O)CN(C)C(=O)c2ccccc2SCc2c(C)noc2C)cc1OCC`, the “hERG current change (%, negative = inhibition) at 10uM” value was -30.4%. For `O=C(CNCc1ccco1)Nc1ccc(N2CCCCCC2)cc1.O=C(O)C(=O)O`, the “hERG current change (%, negative = inhibition) at 10uM” value was -4.13%. With `Cc1ccc(NC(=O)CCC(=O)N/N=C/C=C/c2ccccc2)cc1` the “hERG current change (%, negative = inhibition) at 10uM” value was 7.71%. In the case of `CCN(CC)C(=O)/C(=C\c1ccc2c(c1)OCO2)NC(=O)c1ccc(Br)cc1`, the “hERG current change (%, negative = inhibition) at 10uM” value is reported as -63.5%. With `c1ccc(-c2c3ccccc3nc3[nH]c4ccccc4c23)cc1` the “hERG current change (%, negative = inhibition) at 10uM” value was 18.4%. In the case of `COc1ccc(C2CC3CC(c4ccccc4)N2O3)cc1` (stereo not shown), the “hERG current change (%, negative = inhibition) at 10uM” value is reported as -5.41%. In the case of `O=c1oc2ccccc2cc1-c1nc2ccccc2[nH]1`, the “hERG current change (%, negative = inhibition) at 10uM” value is reported as 13.4%. For `CNC(C(=O)c1ccccc1)C(OC(C)C)c1ccc(Cl)cc1.[O-][Cl+3]([O-])([O-])O` (stereo not shown), the “hERG current change (%, negative = inhibition) at 10uM” value was -4.09%. For `COc1ccccc1NC(=O)CSc1c2c(nc3ccccc13)CCC2`, the “hERG current change (%, negative = inhibition) at 10uM” value was -26.3%. In the case of `Cc1ccsc1-c1nc(-c2ccccc2)c(-c2ccccc2)[nH]1`, the “hERG current change (%, negative = inhibition) at 10uM” value is reported as 6.68%. For `CCCNC(=S)N1CCC(NC(=O)c2ccc(C)cc2)CC1`, the “hERG current change (%, negative = inhibition) at 10uM” value was -4.54%. `CC1CCN(c2ccc(C(=O)NCCc3ccccc3)cn2)CC1` was tested, and the “hERG current change (%, negative = inhibition) at 10uM” value was -44.5%. In the case of `CC1=C(CC(=O)c2ccc(Cl)cc2)C(=O)c2ccccc2C1=O`, the “hERG current change (%, negative = inhibition) at 10uM” value is reported as 6.4%. `O=C(/C=N/O)NCCCN1CCOCC1` was tested, and the “hERG current change (%, negative = inhibition) at 10uM” value was 26.4%. In the case of `COc1ccc(C(C)=O)cc1CSc1nnc(-c2ccc(Cl)cc2)n1-c1ccccc1`, the “hERG current change (%, negative = inhibition) at 10uM” value is reported as -47.5%. `O=c1[nH][nH]c2cc(=O)n(-c3ccc(Cl)cc3)nc12` was tested, and the “hERG current change (%, negative = inhibition) at 10uM” value was 14.3%. `COc1ccc(N(CC(=O)NCC2CCCO2)C(=O)CCC(=O)Nc2nccs2)c(OC)c1` (stereo not shown) was tested, and the “hERG current change (%, negative = inhibition) at 10uM” value was 1.59%. With `O=[N+]([O-])c1ccc2nonc2c1Nc1cccc(F)c1` the “hERG current change (%, negative = inhibition) at 10uM” value was 13.9%.
